Assay results: publication PMC4336329 (PLoS ONE, 2015)
Out of some 310,000 compounds screened, about 2,200 (0.71%) showed an effect of 50% or more. Effects have a minus sign here. The list shows a part of the results.

These compounds were tested against human ether-à-go-go-related gene (hERG) potassium channel (human, UniProt Q12809) (assay: primary screen, population patch clamp on CHO cells stably expressing hERG).
human ether-à-go-go-related gene (hERG) potassium channel, sequence (Q12809 whole entry, looked up): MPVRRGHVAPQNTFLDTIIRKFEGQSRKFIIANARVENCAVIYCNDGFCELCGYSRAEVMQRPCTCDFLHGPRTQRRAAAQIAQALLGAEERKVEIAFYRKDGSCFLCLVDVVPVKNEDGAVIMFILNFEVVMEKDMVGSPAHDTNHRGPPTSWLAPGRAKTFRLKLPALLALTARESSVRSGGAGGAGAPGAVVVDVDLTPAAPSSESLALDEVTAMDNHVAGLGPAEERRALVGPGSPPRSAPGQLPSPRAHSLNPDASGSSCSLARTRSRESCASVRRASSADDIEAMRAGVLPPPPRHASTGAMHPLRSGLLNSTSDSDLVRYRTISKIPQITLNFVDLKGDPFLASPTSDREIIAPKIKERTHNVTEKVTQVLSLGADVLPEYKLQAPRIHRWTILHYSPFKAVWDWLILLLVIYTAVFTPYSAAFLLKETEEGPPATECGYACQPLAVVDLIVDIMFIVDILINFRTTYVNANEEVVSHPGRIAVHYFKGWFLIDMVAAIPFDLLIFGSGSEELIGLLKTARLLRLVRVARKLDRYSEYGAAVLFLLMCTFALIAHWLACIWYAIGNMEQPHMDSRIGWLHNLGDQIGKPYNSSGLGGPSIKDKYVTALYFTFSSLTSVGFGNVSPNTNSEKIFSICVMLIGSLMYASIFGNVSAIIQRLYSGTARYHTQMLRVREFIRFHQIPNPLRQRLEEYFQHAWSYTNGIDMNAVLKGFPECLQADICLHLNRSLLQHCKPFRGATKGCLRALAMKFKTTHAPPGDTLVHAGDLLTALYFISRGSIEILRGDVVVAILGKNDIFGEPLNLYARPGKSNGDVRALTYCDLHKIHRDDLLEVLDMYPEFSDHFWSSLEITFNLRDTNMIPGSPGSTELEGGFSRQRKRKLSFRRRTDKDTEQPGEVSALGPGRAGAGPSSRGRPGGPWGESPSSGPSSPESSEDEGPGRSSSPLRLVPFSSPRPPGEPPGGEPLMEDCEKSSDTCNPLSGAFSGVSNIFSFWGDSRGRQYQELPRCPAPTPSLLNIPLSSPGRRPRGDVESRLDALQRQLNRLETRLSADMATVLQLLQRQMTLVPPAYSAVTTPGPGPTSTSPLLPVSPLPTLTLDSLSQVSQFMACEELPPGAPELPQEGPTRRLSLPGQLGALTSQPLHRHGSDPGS

Row | SMILES | hERG current change (%, negative = inhibition) at 1uM [%]
1 | CC1CCCC(NC(=O)C2CCCN2S(=O)(=O)c2cccc3nsnc23)C1C (stereo not drawn) | 7.42
2 | COc1ccc2cc(C(N)=O)/c(=N/NC(=O)c3ccco3)oc2c1 | 2.5
3 | CCOc1ccc(/C=N/n2c(C3CCCCC3)n[nH]c2=S)cc1 | 13.8
4 | Cc1cc(=O)n2c(-c3ccc(Cl)cc3)csc2n1 | 9.2
5 | Cc1cccc(NC(=O)c2cc(S(=O)(=O)c3ccccc3)ccc2Cl)c1 | -1.59
6 | Cn1nnnc1SCC(=O)N(C1CCCCC1)C1CCCCC1 | 7.38
7 | C=C(C)Cn1c(=O)c2c(nc3n2CCN3c2cccc(Cl)c2C)n(C)c1=O | 14.8
8 | O=C(NCCc1ccco1)C(=O)NCC1OCCCN1S(=O)(=O)c1ccc(Cl)cc1 (stereo not drawn) | 13.5
9 | CCOCc1nnc(NC(=O)c2ccc(OC)cc2)s1 | 13.9
10 | CNc1ccccc1C(=O)OC(C)C(=O)Nc1ccc(S(=O)(=O)N2CCCC2)cc1 (stereo not drawn) | 11.2
11 | Cc1cccc(N2C(=O)c3cccc4c(N(C)CCO)ccc(c34)C2=O)c1 | -3.41
12 | CCc1nc(SCc2ccccc2C#N)n[nH]1 | 15.7
13 | O=C(COC(=O)c1cccc(S(=O)(=O)N2CCOCC2)c1)c1ccccc1 | 20.3
14 | COc1cccc(C(=O)NC2CCN(CC(=O)NCc3ccccc3F)CC2)c1 | 11.9
15 | Cc1n[nH]c(=S)n1/N=C/c1cccc(OCc2ccccc2)c1 | 20.1
16 | Cl.O=C(Nc1ccc(Br)cn1)c1ccc(Br)s1 | 13.3
17 | COC(=O)C1Cc2ccccc2CN1C(=O)CCl (stereo not drawn) | 3.85
18 | CCCCCN=C(N)N/N=C/c1c[nH]c2ccc(OC)cc12.O=C(O)/C=C\C(=O)O | 4.57
19 | CNC(=O)CSc1nnc(C2CC2)n1-c1ccccc1 | 7.01
20 | O=C1c2ccccc2C(=O)N1c1ccccc1S(=O)C(F)(F)F (stereo not drawn) | 10.1
21 | CCOc1ccc(C)cc1S(=O)(=O)n1ccnc1 | 15.2
22 | O=C(Oc1ccccc1C(=S)N1CCOCC1)c1cccc([N+](=O)[O-])c1 | 8.85
23 | CN(C(=O)COC(=O)c1cc(S(=O)(=O)N(C)C)ccc1Cl)C1CCS(=O)(=O)C1 (stereo not drawn) | 1.46

Row | SMILES | hERG current change (%, negative = inhibition) at 1uM [%]
24 | Cc1ccc(NC(=O)CN2CCC(NC(=O)Cc3ccccc3)CC2)c(C)c1 | 0.63
25 | Cc1cc(C)c(NC(=O)Cn2ncc3ccccc32)c(C)c1 | 5.74
26 | Cn1cnc([N+](=O)[O-])c1Nc1cccc(O)c1 | 9.65
27 | O=C(NCC1CCCO1)c1ccccc1S(=O)(=O)c1ccc([N+](=O)[O-])cc1 (stereo not drawn) | 13.2
28 | Cc1ccc(NC(=O)CN(C)C(=O)Cc2ccc(Cl)cc2Cl)cc1 | 14.1
29 | COc1ccc(-c2csc(NC(=O)CSC(C)C(=O)Nc3cc(C)on3)n2)cc1OC (stereo not drawn) | 0.855
30 | NC(=O)C1CCCN(C(=S)Nc2ccccc2)C1 (stereo not drawn) | 8.2
31 | O=C1Nc2ccc(Br)cc2/C1=C/C1CC=CCC1 (stereo not drawn) | -0.575
32 | CCNc1nc(Oc2ccc(=O)n(-c3ccccc3)n2)nc(N2CCOCC2)n1 | 5.94
33 | Cc1ccc(-n2c(SCC(=O)Nc3ccc(C(=O)O)cc3)nnc2-c2ccncc2)cc1 | 7.63
34 | COc1cc(OC)cc(C(=O)NC(=S)NNC(=O)c2cnccn2)c1 | 5.19
35 | Cc1ccc2cccc(OC(=O)N(C)c3ccccc3)c2n1 | 14.7
36 | O=C(O)Cc1cn(-c2ccccc2)nc1-c1ccc(Cl)cc1 | 4.98
37 | CCn1cc(C(=O)N2CCN(c3cccc(C)c3C)CC2)c(=O)c2ccc(C)nc21 | -4.58
38 | COc1ccc(N(C(=O)c2ccco2)S(=O)(=O)c2ccc(F)cc2)cc1 | 13.3
39 | COCCNC(=O)/C(C#N)=C\c1ccc(CNS(=O)(=O)c2ccccc2)o1 | 22.8
40 | CCn1nc(C)cc1-c1nnc(SCC(=O)Nc2ccccc2)n1CCCOC | 13.1
41 | Cc1cccc(Oc2ccccc2NC(=O)C2=COCCO2)c1 | 10.9
42 | O=C(Nc1ccccc1)O[C@@H]1C[C@H]2CCC(=O)N3CC[C@@H](C1)[C@@H]23 | 4.55
43 | O=C(Nc1cccc(-c2cn3ccccc3n2)c1)c1cnccn1 | 9.53
44 | COc1ccc(S(=O)(=O)N2CCCCCC2)cc1N(C)S(=O)(=O)c1ccc(C)cc1 | -3.15
45 | O=C(NCCO)c1cc2c([nH]c3ccccc32)c(-c2ccccc2)n1 | 7.99
46 | Cc1ccc2[nH]c(=O)c(C3C(C#N)=C(N)Oc4c3ccc3cccnc43)cc2c1 (stereo not drawn) | -0.46

Row | SMILES | hERG current change (%, negative = inhibition) at 1uM [%]
47 | O=C(CCC1CCN(Cc2ccc(C#CCCO)cc2)CC1)NC1CC1 | -11.1
48 | Cc1cc(C(F)(F)F)n2ncc(-c3cccc(Br)c3)c2n1 | 16.2
49 | CCn1nc(C(=O)OCC(=O)c2ccc3c(c2)OCCO3)c2ccccc2c1=O | 5.64
50 | Cc1cccc(OCCCC(=O)Nc2ccc(N(C)C)cc2)c1 | 4.41
51 | S=c1[nH]nc(COc2ccccc2)n1/N=C/c1ccc(Cl)c(Cl)c1 | 10.1
52 | CS(=O)(=O)N1CCCC(C(=O)Nc2ccc3c(c2)OCCO3)C1 (stereo not drawn) | 16.2
53 | CCOC(=O)c1c(C)[nH]c(C(=O)COC(=O)C2CC2C)c1C (stereo not drawn) | 2.87
54 | CCOC(=O)N1CCN(C(=O)CN(C2CCCCC2)S(=O)(=O)c2ccc(C)cc2)CC1 | -4.72
55 | CC1(C)Oc2ccc(C(=O)NC3CC3)cc2N(CC(=O)N2CCOCC2)C1=O | 8.6
56 | COCCCNCC(=O)c1c(N)n(Cc2ccccc2)c(=O)n(C)c1=O.O=C(O)C(=O)O | 3.64
57 | Br.Cc1nc(C)c(-c2csc(Nc3cccc(O)c3)n2)s1 | 14.3
58 | O=C(NCCc1ccccc1)c1ccc(-c2ccc(F)cc2)o1 | 0.0469
59 | O=C(N/C(=C\c1ccco1)C(=O)N1CCCC1)c1ccccc1 | 14.4
60 | COc1cc(C2CC(=O)Nc3c2c(=O)nc2c(C)cccn32)cc(OC)c1OC (stereo not drawn) | 17.2
61 | COc1ccc(C2=NOC(C(=O)Nc3ccc(C)cc3)C2)cc1OC (stereo not drawn) | 1.79
62 | Cc1cc(-c2ccc(Cl)cc2)n2ncnc2n1 | 6
63 | O=[N+]([O-])c1cccc(NC(=S)N2CCc3ccccc32)c1 | 14.6
64 | COc1ccc(NC(=O)c2cccc(Cl)c2)c[n+]1[O-] | 14
65 | CCOC(=O)c1sc(=S)n(-c2cccc(C(F)(F)F)c2)c1SC | -1.95
66 | COc1cccc(-c2c(C(=O)N/N=C/c3cccnc3)nnn2-c2nonc2N)c1 | 19.9
67 | O=C(Cn1nnc2ccccc21)Nc1ccccc1[N+](=O)[O-] | 8.72
68 | CCN(C(=O)COC(=O)c1cccnc1Nc1ccccc1F)C1CCS(=O)(=O)C1 (stereo not drawn) | 4.96
69 | Cn1ccnc1SCC(=O)c1ccc([N+](=O)[O-])cc1 | -0.216

Row | SMILES | hERG current change (%, negative = inhibition) at 1uM [%]
70 | O=C(O)c1ccc(Cl)c(S(=O)(=O)N2CCC(Cc3ccccc3)CC2)c1 | 20.5
71 | Cc1ccc(N(CC(=O)Nc2ccc(C)cc2C)S(=O)(=O)N2CCCC2)cc1 | 5.51
72 | CCc1ccccc1NC(=O)NNC(=O)CCc1ccccc1 | 14.9
73 | Cc1ccc(NC(=O)CCC(=O)c2cccs2)nc1 | 2.89
74 | O=C(NCCN1C(=O)S/C(=C\c2cccs2)C1=O)c1ccc(=O)[nH]c1 | 7.58
75 | Cc1[nH]c(=O)[nH]c(=O)c1S(=O)(=O)N1CCC(C(=O)NC(C)c2ccccc2)CC1 (stereo not drawn) | 7.35
76 | Cc1nc(CSc2ccc(Cl)cc2)cs1 | 11.8
77 | CSc1ncccc1C(=O)Nc1nccs1 | 5.42
78 | CC(=O)Nc1ccc(NC(=O)C2CCCN2C(=O)Nc2ccc(F)cc2)cc1 (stereo not drawn) | 7.48
79 | O=C1NC(c2cccc(Cl)c2)Nc2ccccc21 (stereo not drawn) | 13.9
80 | Cc1nn(C(=O)c2cc3sccc3[nH]2)c(C)c1C | 13.6
81 | COCCNC(=S)N1CCOCC1 | 7.12
82 | Cc1cccc(C)c1-n1c(C)nn(CC#N)c1=O | 14.2
83 | CCn1cc(C(=O)NCC(OC)OC)c(=O)c2cc(S(=O)(=O)N3CCC(C)CC3)ccc21 | 16.9
84 | O=C(c1ccccc1)N1CCN(C(=S)NCc2ccco2)CC1 | 2.1
85 | Cc1ccc(C(=O)N2CCOCC2)cc1S(=O)(=O)N1CCCC1 | 5.51
86 | CCOC(=O)N1CCN(c2cc3[nH]c(=S)[nH]c3cc2F)CC1 | 16.7
87 | COc1cc(-c2nc3ccccn3c2/N=C/c2cc(OC)c(OC)c(OC)c2)ccc1O | 1.51
88 | CC(C)(C)OC(=O)N1CCC(c2cc(=O)n3[nH]c(-c4ccc(Cl)cc4)cc3n2)CC1 | 9.1
89 | O=C(C1CC(=O)N(c2ccc(Cl)cc2)C1)N1CCOCC1 (stereo not drawn) | 5.97
90 | C/C(=N\S(=O)(=O)c1ccc(C)cc1)N1CCN(S(=O)(=O)c2ccccc2)C1C(C)C (stereo not drawn) | -8.4
